# Measured values taken from US20220106375A1 (Memorial Sloan Kettering, published 2022).
# B1: N72D mutant IL-15 (MUT) (ligand)
# chain: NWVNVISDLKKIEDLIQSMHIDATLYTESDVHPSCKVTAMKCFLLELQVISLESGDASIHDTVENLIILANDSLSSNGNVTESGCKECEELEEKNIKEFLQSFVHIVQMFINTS
# modifications: glycosylated; sites not stated
# notes: also called IL[…]D; MUT IL-15
# Target: T1, IL-15Rα-Fc fusion polypeptide including the full length extracellular domain of IL-15Rα (human, heterogeneously glycosylated (~60-90 KDa, ~60 KDa after deglycosylation); sites not determined in the examples)
# T1 construct: Disulfide-linked dimer through the Fc; also called WT IL-15RαFL-hIgG1 Fc; FL
# Experiment: Protein A-purified co-expressed complex, reducing SDS-PAGE
# Experimental: Biochemical characterization of IL15/IL15Rα-Fc complexes. […] Invitrogen SeeBlue Plus2 Pre-Stained Standard (Carlsbad Calif.), or Life Technologies BenchMark Unstained Protein Ladder was used as the protein molecular weight (MW) marker. After electrophoresis, the gel was stained using Coomassie G-250 (GelCode Blue Stain Reagent; Pierce Biotechnology Inc., Rockford, Ill.). The size and purity of complexes was also evaluated by size-exclusion high-performance liquid chromatography (SE-HPLC). Approximately 20 μg of protein was injected into a TSK-GEL G4000SWXL 7.8 mm×30 cm, 8 μm column (TOSOH Bioscience, Tokyo, Japan) with 0.4 M NaClO₄, 0.05 M NaH₂PO₄, pH 6.0 buffer at flow rate of 0.5 mL/min, and UV detection at 280 nm. Ten microliters of gel-filtration standard (Sigma-Aldrich, St. Louis, Mo.) was analyzed in parallel for MW markers.
# Determination of biochemical purity of IL-15/IL-15Rα-Fc complex by SDS-PAGE, and HPLC. To determine the molecular size and biochemical purity of the IL15/IL15Rα-Fc complexes, SDS-PAGE and SEC-HPLC were performed. Under reducing conditions, WT IL-15/IL-15Rα-Fc and MUT IL-15/IL-15Rα-Fc complexes gave rise to two major bands on Tris-glycine SDS-PAGE: ˜60-90 KDa IL-15Rα-Fc and −16 KDa IL-15 (FIG. 18A). […]
binder,measurement,value
B1,binding result,binds
